The least precise scores are not listed. Not listed are two conditions whose scores span a narrow range. In variant names, del marks residues removed and ins residues inserted between the two positions. For some of these results: How much ogerin was present is not stated here.

To fix the notation:
B1: GPR68, Q15743 (parent)
chain: MGNITADNSSMSCTIDHTIHQTLAPVVYVTVLVVGFPANCLSLYFGYLQIKARNELGVYLCNLTVADLFYICSLPFWLQYVLQHDNWSHGDLSCQVCGILLYENIYISVGFLCCISVDRYLAVAHPFRFHQFRTLKAAVGVSVVIWAKELLTSIYFLMHEEVIEDENQHRVCFEHYPIQAWQRAINYYRFLVGFLFPICLLLASYQGILRAVRRSHGTQKSRKDQIQRLVLSTVVIFLACFLPYHVLLLVRSVWEASCDFAKGVFNAYHFSLLLTSFNCVADPVLYCFVSETTHRDLARLRGACLAFLTCSRTGRAREAYPLGAPEASGKSGAQGEEPELLTKLHPAFQTPNSPGSGGFPTGRLA

The variants in data set [1] derive from B1. In words: cAMP reporter score (Enrich2 score, wild type = 0); higher = more signal; HEK293T, FACS bins.
In data set [2] the parent is B1. In words: surface expression score (Enrich2 score, wild type = 0); higher = more signal; HEK293T, FACS bins.

Take S9C: the cAMP reporter score is -0.252 in data set [1] (pH 5.5); -0.032 in data set [1] (pH 6); -0.099 in data set [1] (pH 6, modulator: ogerin); 0.499 in data set [1] (pH 6.5, modulator: ogerin). In addition, the surface expression score in data set [2] worked out at 0.231.
On the same counts, the results for S9Q are 0.029, 0.78, -0.68, 0.31 and -0.255.
The corresponding values for S9L are 0.606, 0.904, 0.693, 1.19 and -0.549.
On to S9V, for which the cAMP reporter score in data set [1] (pH 5.5) turned out to be 0.409; in data set [1] (pH 6), 0.142; in data set [1] (pH 6, modulator: ogerin), 0.542; in data set [1] (pH 6.5, modulator: ogerin), 0.059. Further, the surface expression score in data set [2] is 0.321.
The corresponding values for S9H are -0.74, -0.861, -1.35, -1.7 and -1.88.
For the variant S9P, the cAMP reporter score is 0.43 in data set [1] (pH 5.5) and -0.607 in data set [1] (pH 6.5, modulator: ogerin). Besides, the surface expression score in data set [2] is -0.296.
Regarding S9I, the cAMP reporter score in data set [1] (pH 5.5) amounted to 0.501; in data set [1] (pH 6), 0.882; in data set [1] (pH 6, modulator: ogerin) it was 1.2; in data set [1] (pH 6.5, modulator: ogerin) it was 0.616. Also, the surface expression score in data set [2] turned out to be 0.215.
As for S9Y, the cAMP reporter score in data set [1] (pH 5.5) was 0.821; in data set [1] (pH 6) it was 1.13; in data set [1] (pH 6, modulator: ogerin), 0.698; in data set [1] (pH 6.5, modulator: ogerin), 1.33. Besides, in data set [2], the surface expression score is 0.525.
As for S9G, the cAMP reporter score in data set [1] (pH 5.5) amounted to 0.369; in data set [1] (pH 6) it was 0.949; in data set [1] (pH 6, modulator: ogerin), 0.739; in data set [1] (pH 6.5, modulator: ogerin), 0.381. In addition, the surface expression score in data set [2] is 0.781.
Turning to S9M, the cAMP reporter score in data set [1] (pH 5.5) is 0.17; in data set [1] (pH 6), -0.624; in data set [1] (pH 6, modulator: ogerin), 0.228; in data set [1] (pH 6.5, modulator: ogerin), 0.718. Also, the surface expression score in data set [2] worked out at 0.259.
The corresponding values for S9T are -0.601, -0.472, -1.09, -0.945 and -0.855.
Turning to S9N, the cAMP reporter score in data set [1] (pH 5.5) stood at 1.17; in data set [1] (pH 6), 0.477; in data set [1] (pH 6, modulator: ogerin) it was 1.34; in data set [1] (pH 6.5, modulator: ogerin) it was 1.74. Besides, the surface expression score in data set [2] came out at 1.29.
On the same counts, the results for S9K are 0.083, -0.362, 0.18, -0.077 and 0.129.
For the variant S9F, the cAMP reporter score in data set [1] (pH 5.5) is -0.299; in data set [1] (pH 6), -0.357; in data set [1] (pH 6, modulator: ogerin), -0.615; in data set [1] (pH 6.5, modulator: ogerin), -0.623. Further, in data set [2], the surface expression score was -0.72.
On the same counts, the results for S9A are -0.817, -1.06, -0.715, -0.663 and -0.916.
As for S9R, the cAMP reporter score in data set [1] (pH 5.5) was 0.538; in data set [1] (pH 6), 0.684; in data set [1] (pH 6, modulator: ogerin), 0.697; in data set [1] (pH 6.5, modulator: ogerin), 0.734. The surface expression score in data set [2] turned out to be 0.473.
Take S9E: the cAMP reporter score was -0.253 in data set [1] (pH 5.5); -0.444 in data set [1] (pH 6); -2.07 in data set [1] (pH 6, modulator: ogerin); -0.827 in data set [1] (pH 6.5, modulator: ogerin). For the same variant, the surface expression score in data set [2] was -0.848.
On the same counts, the results for S9W are -0.275, -0.317, -0.412, -0.554 and -0.96.
S9D: the cAMP reporter score is -0.334 in data set [1] (pH 5.5); -0.143 in data set [1] (pH 6); -0.318 in data set [1] (pH 6, modulator: ogerin); -0.007 in data set [1] (pH 6.5, modulator: ogerin). Also, in data set [2], the surface expression score is 0.165.
The corresponding values for T5N are -0.135, 0.188, -1.01, -0.891 and -1.23.
The corresponding values for T5M are -0.183, 0.064, -0.556, -1.07 and -1.25.
With T5E, the cAMP reporter score in data set [1] (pH 5.5) is 0.037; in data set [1] (pH 6), -0.195; in data set [1] (pH 6, modulator: ogerin), -0.257; in data set [1] (pH 6.5, modulator: ogerin) it was -0.272. Further, the surface expression score in data set [2] was -0.576.
The corresponding values for T5I are 0.506, 0.044, 0.048, 0.063 and -1.04.
On the same counts, the results for T5A are -0.083, -0.653, 0.582, 0.013 and -0.301.
In the case of T5K, the cAMP reporter score was -0.059 in data set [1] (pH 5.5); -0.722 in data set [1] (pH 6); -0.367 in data set [1] (pH 6, modulator: ogerin); -0.702 in data set [1] (pH 6.5, modulator: ogerin). Besides, in data set [2], the surface expression score was -0.853.
As for T5P, the cAMP reporter score is -0.393 in data set [1] (pH 5.5); 0.115 in data set [1] (pH 6); -0.32 in data set [1] (pH 6, modulator: ogerin); 0.3 in data set [1] (pH 6.5, modulator: ogerin). Moreover, the surface expression score in data set [2] came out at 0.261.
On the same counts, the results for T5V are -0.297, -0.657, -1.28, -0.906 and -1.33.
On the same counts, the results for T5G are 0.471, 0.041, -0.094, -0.143 and -0.748.
The corresponding values for T5D are 0.9, -0.77, 0.827, 0.339 and -0.288.
T5Q: the cAMP reporter score was determined as 0.619 in data set [1] (pH 5.5); 0.094 in data set [1] (pH 6); 0.918 in data set [1] (pH 6, modulator: ogerin); 0.682 in data set [1] (pH 6.5, modulator: ogerin).
Consider T5W, for which the cAMP reporter score in data set [1] (pH 5.5) is -0.111; in data set [1] (pH 6, modulator: ogerin) it was -0.456; in data set [1] (pH 6.5, modulator: ogerin) it was -0.611. Further, the surface expression score in data set [2] is -1.34.

These data come from the GPR68 mutational scans of Howard et al. (2025).
